{"source": "PubChem BioAssay (Tox21)", "key": {"[1]": {"target": "Progesterone receptor (Homo sapiens) (UniProt P06401)", "sequence (P06401 whole entry, looked up)": "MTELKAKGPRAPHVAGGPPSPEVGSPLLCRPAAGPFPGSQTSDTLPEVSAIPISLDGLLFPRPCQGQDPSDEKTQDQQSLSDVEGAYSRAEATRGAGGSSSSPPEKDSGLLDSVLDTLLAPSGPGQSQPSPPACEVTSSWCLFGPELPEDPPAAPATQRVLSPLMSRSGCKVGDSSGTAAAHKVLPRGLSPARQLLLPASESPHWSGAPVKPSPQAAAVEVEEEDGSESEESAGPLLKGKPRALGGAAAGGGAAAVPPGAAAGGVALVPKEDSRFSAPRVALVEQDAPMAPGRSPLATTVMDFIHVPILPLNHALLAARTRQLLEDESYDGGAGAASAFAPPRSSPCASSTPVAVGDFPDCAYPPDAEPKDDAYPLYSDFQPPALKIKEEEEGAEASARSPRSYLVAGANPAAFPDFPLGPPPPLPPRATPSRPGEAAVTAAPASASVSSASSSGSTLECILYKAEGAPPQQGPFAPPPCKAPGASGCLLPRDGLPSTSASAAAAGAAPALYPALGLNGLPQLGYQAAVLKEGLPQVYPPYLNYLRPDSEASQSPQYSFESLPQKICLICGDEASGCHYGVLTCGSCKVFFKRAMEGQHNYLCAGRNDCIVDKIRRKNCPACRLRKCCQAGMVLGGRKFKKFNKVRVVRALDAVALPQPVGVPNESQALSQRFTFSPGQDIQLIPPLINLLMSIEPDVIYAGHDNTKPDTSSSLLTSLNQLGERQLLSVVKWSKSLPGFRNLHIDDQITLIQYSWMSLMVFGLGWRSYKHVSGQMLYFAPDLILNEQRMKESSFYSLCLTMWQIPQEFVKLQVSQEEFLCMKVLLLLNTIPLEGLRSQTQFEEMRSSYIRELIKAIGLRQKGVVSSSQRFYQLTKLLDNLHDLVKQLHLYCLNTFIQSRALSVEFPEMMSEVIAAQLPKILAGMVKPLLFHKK", "assay": "qHTS assay to identify small molecule antagonists of the progesterone receptor (PR) signaling pathway (AID 1346795; active means well fitted inhibition curve with a large enough effect in the signal ratio in the repeat runs, not every such curve was filed as active; inconclusive means weak or mixed curves; the % refers to the signal ratio)", "conditions": "PR-UAS-bla HEK293T, beta-lactamase FRET ratio, 16 h; activity change, negative = inhibition: at 92.4 µM (top of the series) unless noted", "summary_of_the_method": "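PR-UAS-bla HEK293T cells with beta-lactamase reporter under UAS control, in 2% charcoal-stripped FBS, treated with compounds plus 1 nM promegestone (R5020, final) for 16 hr at 37C. Read-out: FRET beta-lactamase substrate fluorescence after 2 hr at room temperature.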"}, "[2]": {"assay": "qHTS assay to identify small molecule antagonists of the progesterone receptor (PR) signaling pathway - cell viability counter screen (AID 1346798); further: nearly all actives have a fitted effect of over 50% in size", "summary_of_the_method": "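PR-UAS-bla HEK293T cells, 3,000/well in 2% charcoal-stripped FBS medium, dosed with compounds plus R5020 agonist and incubated 16 h at 37C. Viability then measured in the same wells by CellTiter-Glo luminescence after 30 min at RT.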"}, "[3]": {"assay": "qHTS assay to identify small molecule agonists of the progesterone receptor (PR) signaling pathway - cell viability counter screen (AID 1346799; calls by dose curve; further: nearly all actives have a fitted effect of over 45% in size; on activity change, negative = cytotoxicity: on the % scale 0 is the no-effect control and ±100 the full control effect)", "summary_of_the_method": "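Counter screen in the PR-UAS-bla HEK293T wells (2% charcoal-stripped FBS, 16 h compound exposure at 37 C) after the bla read. CellTiter-Glo added, 30 min at room temperature, luminescence read as cell viability.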"}, "[4]": {"assay": "qHTS assay to identify small molecule agonists of the TGF-beta/Smad signaling pathway (AID 1346859; active means well fitted activation curve with a large enough effect in the signal ratio in the repeat runs, not every such curve was filed as active; inconclusive means weak or mixed curves; the % refers to the signal ratio)", "conditions": "SBE-bla HEK293T, TGF-beta/Smad beta-lactamase reporter, 5 h; activation: at 76.8 µM (top of the series)", "summary_of_the_method": "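SBE-bla HEK293T cells plated overnight, then compound exposure for 5 h at 37 C. Beta-lactamase reporter read with LiveBLAzer B/G FRET substrate after 2 h at room temperature, fluorescence at 405 nm excitation, 460/530 nm emission.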"}, "[5]": {"assay": "qHTS assay to identify small molecule antagonists of the TGF-beta/Smad signaling pathway (AID 1346924; active means well fitted inhibition curve with a large enough effect in the signal ratio in the repeat runs, not every such curve was filed as active; inconclusive means weak or mixed curves; the % refers to the signal ratio)", "conditions": "SBE-bla HEK293T, TGF-beta/Smad reporter, beta-lactamase ratio; activity, negative = inhibition: at 76.8 µM (top of the series) unless noted", "summary_of_the_method": "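SBE-bla HEK 293T cells were plated overnight, then received compound in DMSO plus TGF-beta1 (added as a 0.25 ng/mL solution) and were incubated 5 h at 37 C. Beta-lactamase reporter activity was read after 2 h at room temperature with LiveBLAzer B/G FRET substrate (ex 405, em 460/530 nm).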"}, "[6]": {"assay": "Human pregnane X receptor (PXR) small molecule agonists, qHTS cell viability counter screen (AID 1346977); further: nearly all actives have a fitted effect of over 50% in size", "summary_of_the_method": "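PXR-Luc HepG2 cells (2,000/well, 5% charcoal-stripped FBS) preincubated 5 hr, then exposed to compounds 24 hr at 37 C. Viability read in the same wells by CellTiter-Fluor fluorescence, reagent added at 23 hr, 1 hr incubation.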"}, "[7]": {"assay": "Caspase-3/7 induction in CHO-K1 cells by small molecules, qHTS cell viability counter screen (AID 1346979); further: nearly all actives have a fitted effect of over 35% in size", "conditions": "CellTiter-Fluor fluorescence, 17 h; activity change, negative = cytotoxicity: at 92.4 µM (top of the series)", "summary_of_the_method": "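Wild-type CHO-K1 cells (1,500/well) treated with compound after 5 h plating; after 16 h at 37C, viability read as CellTiter-Fluor fluorescence following 1 h reagent incubation, in the same wells as the caspase read.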"}, "[8]": {"assay": "Caspase-3/7 induction in HepG2 cells by small molecules, qHTS cell viability counter screen (AID 1346981); further: nearly all actives have a fitted effect of over 30% in size", "summary_of_the_method": "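Viability determined by CellTiter-Fluor fluorescence in HepG2 wells also used for the luminescent Caspase-Glo 3/7 read. Compounds were present for 16 hr at 37 C, 5% CO2 before reagent addition.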"}, "[9]": {"target": "Cytochrome P450 2D6 (Homo sapiens) (UniProt P10635)", "sequence (P10635 whole entry, looked up)": "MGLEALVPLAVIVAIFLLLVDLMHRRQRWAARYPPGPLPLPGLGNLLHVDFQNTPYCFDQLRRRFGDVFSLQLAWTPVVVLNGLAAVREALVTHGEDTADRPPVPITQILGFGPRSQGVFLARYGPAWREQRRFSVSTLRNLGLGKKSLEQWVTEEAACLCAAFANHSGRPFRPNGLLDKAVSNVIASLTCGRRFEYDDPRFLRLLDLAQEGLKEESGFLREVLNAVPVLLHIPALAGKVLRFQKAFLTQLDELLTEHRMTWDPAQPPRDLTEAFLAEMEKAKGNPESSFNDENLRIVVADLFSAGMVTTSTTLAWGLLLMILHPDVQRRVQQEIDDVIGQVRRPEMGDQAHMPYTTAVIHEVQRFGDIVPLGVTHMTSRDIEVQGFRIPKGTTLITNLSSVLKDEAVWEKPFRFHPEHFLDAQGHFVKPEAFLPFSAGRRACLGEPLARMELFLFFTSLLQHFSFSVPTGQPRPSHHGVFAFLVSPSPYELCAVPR", "assay": "Cytochrome P450 Family 2 Subfamily D Member 6 (CYP2D6) small molecule antagonists: luciferase reporter qHTS assay (AID 1671196); further: nearly all actives have a fitted effect of over 50% in size", "summary_of_the_method": "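Each well received CYP2D6 with its proluciferin substrate and chemical, sat 10 min, then got NADPH regeneration solution for 1 h at room temperature. Luminescence in RLU served as the activity measure.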"}, "[10]": {"target": "Nuclear receptor subfamily 1 group I member 2 (Homo sapiens) (UniProt O75469)", "assay": "CYP3A4 induction through human pregnane X receptor (PXR) by small molecules, qHTS assay (AID 1346984); further: nearly all actives have a fitted effect of over 40% in size", "summary_of_the_method": "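Readings come from a luciferase reporter: DPX-2 cells, which are HepG2 cotransfected with PXR and a CYP3A4-promoter construct, were exposed to test compounds for 24 h at 37C before One-Glo detection.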"}, "[11]": {"target": "Cytochrome P450 2C9 (Homo sapiens) (UniProt P11712)", "sequence (P11712 whole entry, looked up)": "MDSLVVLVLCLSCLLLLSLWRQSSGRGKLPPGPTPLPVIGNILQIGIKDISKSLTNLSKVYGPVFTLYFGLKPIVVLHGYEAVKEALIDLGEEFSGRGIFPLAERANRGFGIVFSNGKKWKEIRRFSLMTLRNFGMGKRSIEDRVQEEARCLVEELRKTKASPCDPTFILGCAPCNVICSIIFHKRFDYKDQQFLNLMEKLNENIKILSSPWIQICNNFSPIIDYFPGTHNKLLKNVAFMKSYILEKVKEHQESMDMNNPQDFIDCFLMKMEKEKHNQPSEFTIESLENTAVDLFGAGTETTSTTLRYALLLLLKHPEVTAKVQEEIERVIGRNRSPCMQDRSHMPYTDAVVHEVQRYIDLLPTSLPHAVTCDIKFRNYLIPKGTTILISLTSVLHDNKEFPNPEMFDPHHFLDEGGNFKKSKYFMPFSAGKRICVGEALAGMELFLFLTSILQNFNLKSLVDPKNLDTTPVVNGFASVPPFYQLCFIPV", "assay": "Cytochrome P450 Family 2 Subfamily C Member 9 (CYP2C9) small molecule antagonists: luciferase reporter qHTS assay (AID 1671198); further: nearly all actives have a fitted effect of over 50% in size", "summary_of_the_method": "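CYP2C9 activity was measured with a P450-Glo proluciferin substrate. Enzyme–substrate mix was held with compound for 10 min at room temperature, then NADPH regeneration solution was added for 1 h at 37C. Luciferin product was read as luminescence.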"}}, "note": "Inconclusive results, whose numbers are uncertain, are shown with a selection of clear calls. For some of these results: Potencies of inconclusive entries are left out as doubtful fits. Calls of active or inactive are those of the source. Unless noted, the call rests on the fitted dose curve; in most records, active means well fitted curve in the direction sought with a large enough effect in the repeat runs; inconclusive means weak or mixed curves; inactive means no such curve, though single readings can be large; an effect the other way counts as inactive or inconclusive. Potency means the concentration at half of the fitted maximal effect; tags describe the fitted curve by direction and shape or compound fluorescence and quenching."}
{"smiles": "CCOc1ccc2nc3cc(N)ccc3c(N)c2c1", "values": [{"measurement": "Potency", "setting": "[1]", "value": "inconclusive [rising, partial curve, poor fit]"}, {"measurement": "Potency", "setting": "[2]", "value": "inconclusive [cytotoxic, single point]"}, {"measurement": "Potency", "setting": "[3]", "value": "inactive"}, {"measurement": "Potency", "setting": "[4]", "value": "inconclusive [fluorescent, partial curve]"}, {"measurement": "Potency", "setting": "[5]", "value": "inconclusive [fluorescent, partial curve]"}, {"measurement": "Potency", "setting": "[6]", "value": "inconclusive [cytotoxic, single point]"}, {"measurement": "Potency", "setting": "[7]", "value": "inconclusive [rising, partial curve]"}, {"measurement": "Potency", "setting": "[8]", "value": "inconclusive"}, {"measurement": "Potency", "setting": "[9]", "value": "active: 15.5 µM"}]}
{"smiles": "CN1CCC(Nc2ncc3ncnc(Nc4ccc(F)c(Cl)c4)c3n2)CC1", "values": [{"measurement": "Potency", "setting": "[1]", "value": "inconclusive"}, {"measurement": "Potency", "setting": "[2]", "value": "active: 16.8 µM"}, {"measurement": "Potency", "setting": "[3]", "value": "active: 9.44 µM"}, {"measurement": "Potency", "setting": "[4]", "value": "inconclusive [fluorescent, partial curve]"}, {"measurement": "Potency", "setting": "[5]", "value": "inconclusive [fluorescent, partial curve]"}, {"measurement": "Potency", "setting": "[8]", "value": "inconclusive [cytotoxic]"}, {"measurement": "Potency", "setting": "[10]", "value": "inconclusive [activator, single point]"}]}
{"smiles": "CCC(C)COC(=O)CC(C)C", "note": "(centres undefined)", "values": [{"measurement": "Potency", "setting": "[1]", "value": "inconclusive"}, {"measurement": "Potency", "setting": "[2]", "value": "active: 9.69 µM"}]}
{"smiles": "Fc1ccccc1[C@@H](F)COC1CCC(Nc2ncnc3[nH]ncc23)CC1", "note": "(some centres undefined)", "values": [{"measurement": "Potency", "setting": "[1]", "value": "active: 27.3 µM"}, {"measurement": "Potency", "setting": "[2]", "value": "inconclusive [cytotoxic, single point]"}, {"measurement": "Potency", "setting": "[3]", "value": "inconclusive [cytotoxic, single point]"}, {"measurement": "Potency", "setting": "[4]", "value": "inconclusive [rising, full curve]"}, {"measurement": "activity, negative = inhibition", "setting": "[5]", "value": "inconclusive: -17.3%"}, {"measurement": "Potency", "setting": "[6]", "value": "active: 27.3 µM"}, {"measurement": "Potency", "setting": "[8]", "value": "inconclusive [cytotoxic, single point]"}, {"measurement": "Potency", "setting": "[9]", "value": "inconclusive [inhibitor, partial curve]"}]}
{"smiles": "c1cc(N(CC2CO2)CC2CO2)ccc1Cc1ccc(N(CC2CO2)CC2CO2)cc1", "note": "(centres undefined)", "values": [{"measurement": "Potency", "setting": "[1]", "value": "inconclusive [rising, full curve, poor fit]"}, {"measurement": "Potency", "setting": "[2]", "value": "inconclusive [rising, single point]"}, {"measurement": "Potency", "setting": "[3]", "value": "inconclusive [rising, full curve]"}, {"measurement": "Potency", "setting": "[4]", "value": "inconclusive [rising, full curve]"}, {"measurement": "Potency", "setting": "[5]", "value": "inconclusive [rising, partial curve]"}, {"measurement": "Potency", "setting": "[7]", "value": "active: 54.5 µM"}, {"measurement": "Potency", "setting": "[8]", "value": "active: 61.1 µM"}, {"measurement": "Potency", "setting": "[11]", "value": "active: 17.8 µM"}]}
